Test results: PMC12136788
The other results are listed elsewhere or left out.

B1: chr15:55376998:55377117:-|CDS|ENSG00000260916|unk|FALSE|unique (ssRNA)
RNA: GGGAGUUCUACAGUCCGACGAUCUAUCUAUAUUGGAACUGCCAGUGAUGAUUCUGAUAUUGUUACCCUUGAGCCACCUAAGUUAGAAGAAAUUGGAAAUCAAGAAGUUGUCAUUGUUGAAGAAGCACAGAGUUCAGAAGACUUCAACAGAGGAUUGAGCAUCA
B2: ENSG00000181035:stop:overlap|stop_codon|ENSG00000181035|stop_codon|NA|stop_codon (ssRNA)
RNA: GGGAGUUCUACAGUCCGACGAUCUGGGCAUCAGCUUCACCACCUUCGACCUCAUGCAGAUCCUGCUGCGGCACCUGCAGAGCUAGGGGACCCUGAGCUGCUCUCAGGACGGUGGACCGGUGACCCCUUUGUAUUCUGGGCCCACAACAGAGGAUUGAGCAUCA
B3: ENSG00000104805:stop:overlap|stop_codon|ENSG00000104805|stop_codon|NA|stop_codon (ssRNA)
RNA: GGGAGUUCUACAGUCCGACGAUCAGUUGAAGGAGGUGUGGGAGGAGCUGGAUGGACUGGACCCCAACAGCAUCCCAAAGUGCUAGGAUUACAGGCGUGAGUCACUGCGCCCGGCCUCGAAAGCCCUUUCUCUAUGGUGGAUCACAACAGAGGAUUGAGCAUCA
B4: chr10:63214216:63214317:-|CDS|ENSG00000171988|unk|FALSE|unique (ssRNA)
RNA: GGGAGUUCUACAGUCCGACGAUCUAAGCUGCAUAAGCGAAGUCCACCUCCAGAGACUAUAAAAUCUAAACUUAAUACUUCAGUAGAUACUCACAAGAUAAAAUCCAGCCCAUCACCUGAAGUUGUUAAACCCAAAAUAACUCACAACAGAGGAUUGAGCAUCA
B5: chr8:54147534:54147638:+|CDS|ENSG00000137547|unk|total|mutant (ssRNA)
RNA: GGGAGUUCUACAGUCCGACGAUCAAGUAUGGUUAUAUCUUACCUGAUAUCACUAAAGAUGAACUCUUCAAAAUGCUCUGUACCCGGAAGGAUCCAAGGCAGAUUUUCUUUGGUCUUGCUCCAGGAUGGGUGGUGAAUAUGGCCCAACAGAGGAUUGAGCAUCA
B6: ENSG00000136451:be:win_4201|3pUTR|ENSG00000136451|bound_else_gene|NA|bound_elsewhere_windowed (ssRNA)
RNA: GGGAGUUCUACAGUCCGACGAUCCCCUUCUGGUUGUAACCUGGUUGAGAGCUUCCCCUUUAUCAGAUUGGCAGCUAAACAGUUGUAUUAGAUAAUCCUUAAAUCUGACAUCCAGCCUGUUACGCUCUAGGGCUCGCUGCUUGGCAACAGAGGAUUGAGCAUCA
B7: chrX:53532849:53532950:-|3pUTR|ENSG00000086758|unk|FALSE|unique (ssRNA)
RNA: GGGAGUUCUACAGUCCGACGAUCGUGCUCCUCAGAUUCUGUGUUCAGAAGGAUUUGCUGCAUUGAGACUUGAAACCUUUGGAUAGGGGAAAAAAUUAUAUAUAUAUAUAUUUUUUUGUUCUGUUUGCAUUUCUUAAUUUGUGCCAACAGAGGAUUGAGCAUCA
B8: chr1:202941098:202941199:-|3pUTR|ENSG00000159346|msi1_unk|total|mutant (ssRNA)
RNA: GGGAGUUCUACAGUCCGACGAUCCCUCCCUUACCCCCAUCCUUAACUUUGUAUCCUGGCUUAUAACAGGCCAUCCAUUUUUGCCGCACACUUUUCAAAAACAAUUAUAUACCCUGGUCCCAUCUUUCCCGGGCCUGGAUCUGCCAACAGAGGAUUGAGCAUCA
B9: chr2:196807445:196807622:-|CDS|ENSG00000187944|control|control|control (ssRNA)
RNA: GGGAGUUCUACAGUCCGACGAUCAAGGGCAGAGGUCUUGAUCUUGGAACAUUUCCAAAUCCUUUCCCCACGAAUGAAAAUCCUAGACCUCUCUCUUUCCAGUCAGAACUUACUGCUUCUGCAUCUGCAGAUUAUGAAGAGCAGCAACAGAGGAUUGAGCAUCA
B10: chr4:121668310:121668420:-|3pUTR|ENSG00000164111|msi1_unk|FALSE|overlapping (ssRNA)
RNA: GGGAGUUCUACAGUCCGACGAUCCCUUCAGCACCUUUAGCUGCAUUUGUAUGCCAGUGCUUAACACAUUGCCUUAUUCAUACUAGCAUGCUCAUGACCAACACAUACACGUCAUAGAAGAAAAUAGUGGUGCUUCUUUCUGAUCAACAGAGGAUUGAGCAUCA
B11: chr16:74621626:74621727:-|3pUTR|ENSG00000168411|msi1|total|mutant (ssRNA)
RNA: GGGAGUUCUACAGUCCGACGAUCCAUCUCAAAAAAAACAAACAAACAAAAAAAAACCCUGAUGCCAUUCCCAGUCCCCGUUGCCGGACAUCACAUUUAUAAAUCCAGGCUUCCGUCUUCUGGGCUCCACCAGUCUCUGCCCCACAACAGAGGAUUGAGCAUCA
B12: chr9:15468732:15468834:-|CDS|ENSG00000164985|unk|FALSE|unique (ssRNA)
RNA: GGGAGUUCUACAGUCCGACGAUCAAUUAGGAAAACAAUUAUGAUGAAUGUAUAUUGUUUUCUCAGAUACGGCGAUUCAAAGUUAGUCAGGUAAUCAUGGAAAAGUCUACAAUGUUGUAUAACAAGUUUAAGAACAUGUUCUUGCAACAGAGGAUUGAGCAUCA
B13: chr5:37333503:37333606:-|CDS|ENSG00000113569|unk|total|mutant (ssRNA)
RNA: GGGAGUUCUACAGUCCGACGAUCGAUGACAGCUGGUGUUGAUGGUCAUUCCUGGGCUCUUUCUGCGACCGAUGAAUUGAAAGCCGAUAAAAUAAUUACACCUUUAAACAAGGAUCAUAUUCCAAUAACUGAUUCACCAGUUGUCAACAGAGGAUUGAGCAUCA
B14: chr12:133218311:133218884:-|three_prime_utr|ENSG00000227059|control|control|control (ssRNA)
RNA: GGGAGUUCUACAGUCCGACGAUCAGAGUUCCCCUGGGGGCUCUGCUGAAAAGCAGAGAUUCUUUCCCACUGCCAUGUUUGAAUAGUUUGGUUAGCAAUUCCCUGUAGUAGAGAAAGCAUUUGAGAAAUGUUCGUGAGAUCAGACAACAGAGGAUUGAGCAUCA
B15: chr7:94537565:94537673:+|CDS|ENSG00000127995|unk|FALSE|unique (ssRNA)
RNA: GGGAGUUCUACAGUCCGACGAUCGAAGCCUGUAGAUGGGUCCUGUUGUCAACCUCGGCCUCCUGUUACUCUCAUACAGAAGCUAGCUGCUUGUUUUUUCACUUUAUCUAUUAUCGGAUAUUUAAUUUUUUACAUAAUUCAUCGCAACAGAGGAUUGAGCAUCA
B16: chr5:157463210:157463311:+|CDS|ENSG00000172548|unk|total|mutant (ssRNA)
RNA: GGGAGUUCUACAGUCCGACGAUCCAGGAAAGAAUCAGGCAGAACUAUGGCUUCUACAUCGGCCUGGGCCUGGCAUUCCUGUCCCGCUUCCUCAUCGGCAGCAGCGUCAUCCUCAAGAAGAAAGGCCUCUUGCGACUCGUGGCCCAACAGAGGAUUGAGCAUCA
B17: chr19:18306235:18307555:-|three_prime_utr|ENSG00000130520|control|control|control (ssRNA)
RNA: GGGAGUUCUACAGUCCGACGAUCCAGAAAGGAAGAGGCAGGCGCCAGGGGGAACCCCCUUCGUGUUUUGUGACCCUCCCUUUUAGGUGAAGCCCCUUUUUCUUGCUAAAACCGGCAAUUCUCCGGUUAGAAAUGUUACUUGGUCAACAGAGGAUUGAGCAUCA
B18: chr7:99546688:99548407:-|CDS|ENSG00000221909|control|control|control (ssRNA)
RNA: GGGAGUUCUACAGUCCGACGAUCCUUGACACGGUUAAAAACAAAGAAGAGAAAUAGGCUCAAUAGUGCACCAGAUAUGCGGGUAGCAUUAUCUUCAUGUGUUCCUGACUGGAAGGAACUUAUGAACAGACAAGCACACCCAUCCAACAGAGGAUUGAGCAUCA
B19: chr15:52122579:52122653:-|3pUTR|ENSG00000069966|msi1_unk|FALSE|overlapping (ssRNA)
RNA: GGGAGUUCUACAGUCCGACGAUCUCUUCACAUGUAAAUAGAUAUUACUUCUAGAGGAGCUUAGAGUUUAUUGCAGUGUAGCUUAGGGGAGCAACCCAUGGCUCACAGGUCACUAAGCGUCUCCAAUAUGACUAUUAAAACUGUCAACAGAGGAUUGAGCAUCA
B20: ENSG00000070961:be:win_1901|CDS|ENSG00000070961|bound_else_gene|NA|bound_elsewhere_windowed (ssRNA)
RNA: GGGAGUUCUACAGUCCGACGAUCAAACUGUGAUUGAACCGAUGGCAUCAGAAGGCUUGAGAACCAUAUGUCUUGCAUUCAGAGAUUUUCCAGCAGGAGAACCAGAACCAGAGUGGGAUAAUGAAAAUGAUAUUGUCACCGGCCCAACAGAGGAUUGAGCAUCA
B21: chrX:101412715:101412817:+|CDS|ENSG00000126945|unk|FALSE|unique (ssRNA)
RNA: GGGAGUUCUACAGUCCGACGAUCGGGUAUGGAGGCUAUGAUGACUAUGGUGGCUAUAAUGAUGGAUAUGGCUUUGGGUCUGAUAGAUUUGGAAGAGACCUCAAUUACUGUUUUUCAGGAAUGUCUGAUCAUAGAUACGGAGAUCAACAGAGGAUUGAGCAUCA
B22: chr7:73831540:73831641:+|CDS|ENSG00000189143|msi1|FALSE|unique (ssRNA)
RNA: GGGAGUUCUACAGUCCGACGAUCCAAGGCCAAGACCAUGAUCGUGGCGGGCGUGGUGUUCCUGUUGGCCGGCCUUAUGGUGAUAGUGCCGGUGUCCUGGACGGCCCACAACAUCAUCCAAGACUUCUACAAUCCGCUGGUGGCCAACAGAGGAUUGAGCAUCA

What follows are binders tested against MSI1 full-length (mouse, UniProt Q61474 1-362) (assay: nsRBNS (natural sequence RNA bind-n-seq); RBNS binding buffer (assumed for nsRBNS): 25 mM Tris pH 7.5, 150 mM KCl, 3 mM MgCl2, 0.01% Triton X-100, 500 ug/ml BSA, 20 U/ml SUPERase-In, 4 C; UNK is unkempt and MSI1 is Musashi-1; names of the RNAs are library labels; protein concentration not given here; high values mean tight binding).
Chain of UniProt Q61474 (Q61474 whole entry): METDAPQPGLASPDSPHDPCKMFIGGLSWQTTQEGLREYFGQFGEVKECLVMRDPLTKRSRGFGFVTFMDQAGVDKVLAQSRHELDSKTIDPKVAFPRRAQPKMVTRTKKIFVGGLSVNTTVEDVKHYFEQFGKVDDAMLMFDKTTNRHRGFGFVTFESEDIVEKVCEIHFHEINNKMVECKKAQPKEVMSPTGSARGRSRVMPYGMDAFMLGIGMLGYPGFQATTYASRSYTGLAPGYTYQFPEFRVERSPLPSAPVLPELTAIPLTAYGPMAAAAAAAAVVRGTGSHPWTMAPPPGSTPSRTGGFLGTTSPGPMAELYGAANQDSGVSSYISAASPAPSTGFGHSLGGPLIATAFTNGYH

Row | Binder | binding signal
1 | B1 | 1.68 enrichment R
2 | B2 | 0.75 enrichment R
3 | B3 | 0.432 enrichment R
4 | B4 | 1.04 enrichment R
5 | B5 | 0.269 enrichment R
6 | B6 | 0.869 enrichment R
7 | B7 | 0.388 enrichment R
8 | B8 | 1.69 enrichment R
9 | B9 | 0.294 enrichment R
10 | B10 | 1.44 enrichment R
11 | B11 | 0.991 enrichment R
12 | B12 | 0.966 enrichment R
13 | B13 | 0.359 enrichment R
14 | B14 | 6.25 enrichment R
15 | B15 | 2.88 enrichment R
16 | B16 | 0.586 enrichment R
17 | B17 | 0.565 enrichment R
18 | B18 | 0.439 enrichment R
19 | B19 | 1.29 enrichment R
20 | B20 | 0.318 enrichment R
21 | B21 | 0.771 enrichment R
22 | B22 | 0.372 enrichment R
